The whole screen tested about 48,000 compounds, of which about 450 (0.94%) were called active. Roughly 19% stayed inconclusive and do not appear here. Calls follow the shape of the dose curve; as a rule, active = well fitted inhibition curve with a large enough effect; inconclusive = small, poorly fitted or top-dose-only effect; inactive = no such curve, though single readings can be large or run the other way. The list shows a part of the results.
assay: Primary qHTS for Identification of Small Molecule Inhibitors of Huntingtin Promoter Activity; details: HEK293 HTT promoter firefly luciferase reporter (activity 0% = vehicle and -100% = no light), 24 h; series mostly up to 57.5 µM; activity change, negative = inhibition: at the top concentration; also: nearly all actives have a fitted effect of over 50% in size
Summary of the method: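 Luminescence was read after Dual-Glo reagent and a 10 min room-temperature incubation. Values were normalized to vehicle (0% activity) and zero RLU (-100% activity). Reporter HEK293 cells had been exposed to compounds (up to 57.5 uM final) for 24 h.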
Potency is read from the fitted curve at half-maximal effect.

SMILES | activity change, negative = inhibition | Potency
COc1cc(OC)cc(-c2nnc(SCC(=O)c3ccc([N+](=O)[O-])cc3)o2)c1 | inactive: -11.5% | –
O=C(CSc1nncn2c1cc1occc12)Nc1ccc(F)c(Cl)c1 | inactive: -4.47% | –
COc1ccc(N(CC(=O)NCCc2ccc(C)cc2)S(=O)(=O)c2c(C)nn(C)c2C)cc1 | inactive: -14.8% | –
COc1cc(Nc2nn(-c3ccc(OC(F)(F)F)cc3)nc2C(C)=O)cc(OC)c1 | inactive: -0.504% | –
CCOC(=O)c1cc(-c2ccc(OC)cc2)n(CCC(=O)Nc2cccc(C)c2C)c1C | inactive: -18.1% | –
CCCCc1nn2c(=O)cc(COC(=O)c3ccc4c(c3)OCO4)nc2s1 | inactive: -12.6% | –
COc1cc(OC)cc(-n2c(=O)c3ccccc3n(Cc3ccccc3C#N)c2=O)c1 | inactive: -15.6% | –
CCC(=O)Nc1cc(-c2cn3cccnc3n2)ccc1OC | inactive: 8.91% | –
CC1=C(C(=O)Nc2ccccc2)C(C(C)C)n2nc(SCc3ccccc3C)nc2N1 (stereo not drawn) | inactive: 7.09% | –
OCC(O)C(O)C(O)CO (stereo not drawn) | inactive: -7.93% | –
CCc1ccc(NC(=O)Cn2nc(C(F)(F)F)c3c2CCCC3)cc1 | inactive: -21.2% | –
O=C(Cn1ncn2cccc2c1=O)NCc1cccc(Br)c1 | inactive: 60.4% | –
Cc1c(Cl)cccc1NC(=O)Cn1c(=O)cc(C)c2c(C)nn(-c3cccc(F)c3)c21 | inactive: 7.69% | –
COc1ccc(NC(=O)c2cc(-c3ccc(F)cc3)no2)cc1OC | inactive: -9.37% | –
COc1ccccc1Cc1nc2ccccc2nc1SCC(=O)Nc1c(C)cccc1C | inactive: -13.2% | –
O=C(OCC(O)CO)c1ccccc1Nc1ccnc2c(C(F)(F)F)cccc12 (stereo not drawn) | inactive: -15.4% | –
Cc1cc(NC(=O)c2ccco2)cc(-c2nc3ccccc3o2)c1O | inactive: -5.55% | –
CCCNC(=O)Cn1nc(-c2ccc(C)cc2)c2cnc3ccc(CC)cc3c21 | inactive: -0.324% | –
CCN(C(=O)CCS(=O)(=O)c1cc2c(cc1C)NC(=O)CO2)c1cccc(C)c1 | inactive: -5.63% | –
CCn1c(C)c(C)c2cc(C(=O)N3CCN(c4ccccc4)CC3)ccc21 | inactive: -3.07% | –
CN(C)CCN(Cc1ccccc1)S(=O)(=O)c1csc(C(N)=O)c1 | inactive: -8.83% | –
Cc1ccc(CNS(=O)(=O)c2c(C)nc3sc(C)cn3c2=O)cc1 | inactive: -13% | –
Cc1ccc(Cl)cc1NC(=O)CN1C(=O)c2ccccc2Sc2ncccc21 | inactive: -16.2% | –
COc1ccc(CCNC(=O)c2ccc3c(c2)nc2n3CCCCC2)cc1OC | inactive: -26.6% | –
CCCn1cnc2cc(NC(=O)c3cc(OC)c(OC)c(OC)c3)ccc21 | inactive: 6.68% | –

SMILES | activity change, negative = inhibition | Potency
Cc1cccc(N2CCN(Cc3nnc(-c4cccc(Br)c4)o3)CC2)c1C | inactive: -19.7% | –
CCCOC(=O)c1cccc(NC(=O)CSc2nnc3cc(C)c4ccccc4n23)c1 | inactive: -13.3% | –
CC(=O)c1ccc(NC(=O)c2nc(-c3ccccc3)n(-c3ccc(C)cc3)n2)cc1 | inactive: -4.01% | –
Clc1ccc2nc(-c3ccc(N4CCOCC4)cc3)c(Nc3ccccc3)n2c1 | inactive: 11.7% | –
O=C(NCc1cccc(Cl)c1)C1CCCN(c2nn3cc(-c4ccc(F)cc4)nc3s2)C1 (stereo not drawn) | – | active: 2.51 µM
CCc1ccccc1N(C)C(=O)c1nn(-c2ccc(OC)cc2)c(=O)c2c1c1ccccc1n2C | inactive: -6.35% | –
CCOc1ccc(CNc2cc(C)nc3nc(-c4cccc(C)c4)nn23)cc1OC | inactive: 10.4% | –
Cc1cccc(NC(=O)c2ccc3oc(=O)c(S(=O)(=O)c4ccc(F)cc4)cc3c2)c1C | inactive: -7.17% | –
CCOc1ccc(S(=O)(=O)c2cc3cccc(OCC)c3oc2=O)cc1 | inactive: 2.6% | –
CC1CCc2c(sc3nnn(Cc4ccccc4Cl)c(=O)c23)C1 (stereo not drawn) | inactive: -16.7% | –
CCOc1ccccc1Oc1ncnc2c1oc1ccccc12 | inactive: -25.8% | –
CC1CCC(NC(=O)c2ccc3c(c2)N(Cc2ccccc2F)C(=O)c2ccccc2S3(=O)=O)CC1 (stereo not drawn) | inactive: 18.5% | –
CCOc1ccccc1CNCc1c(C(=O)O)n(Cc2ccccc2)c2cc(OC)ccc12 | inactive: -13% | –
CCOc1ccccc1C1C(C(=O)Nc2ccccc2)=C(C)Nc2nc(-c3ccccc3)nn21 (stereo not drawn) | inactive: -9.15% | –
COc1ccccc1OCc1nc2ccccc2n1Cc1ccccc1 | inactive: -5.95% | –
CC(C)NC(=O)CSc1cn(CC(=O)N2CCCCCC2)c2ccccc12 | inactive: -23.7% | –
Cc1ccc(-c2nnc3c4ccccc4c(-c4ccccc4)nn23)cc1 | inactive: -4.46% | –
CCOc1ccccc1NCc1nnc2n1CCCCC2 | inactive: -8.05% | –
COc1ccc(N2CCN(C(=O)c3cnc(N4CCOCC4)c4ccccc34)CC2)cc1 | inactive: -25.4% | –
COc1ccc(C)cc1NC(=O)c1nnn(CC(=O)Nc2c(C)cccc2C)c1N | inactive: -4.53% | –
CCc1cccc(NC(=O)c2cc3c(=O)oc4ccc(C)cc4c3s2)c1 | inactive: -5.49% | –
COc1ccc(CNC(=O)C(CC(C)C)NS(=O)(=O)c2ccc3c(c2)oc(=O)n3C)cc1 (stereo not drawn) | inactive: -18.1% | –
Cc1ccc(S(=O)(=O)c2cn(Cc3ccccc3)c3cc(N4CCCC4)c(F)cc3c2=O)c(C)c1 | inactive: -4.93% | –
CSc1nnc(NC(=O)c2cc(=O)c3cc(C)c(C)cc3o2)s1 | inactive: -1.68% | –
CCOc1c(CNCCSc2nnnn2C)cccc1OC | inactive: -1.54% | –

SMILES | activity change, negative = inhibition | Potency
Cc1cccc(C)c1NC(=O)C(=O)NCC(c1ccc2c(c1)OCO2)N1CCN(C)CC1 (stereo not drawn) | inactive: -9.92% | –
COc1ccc(OC)c([C@@H]2Nc3ccc(C(=O)O)cc3[C@@H]3C=CC[C@@H]32)c1 | inactive: -24.3% | –
CCc1cccc(NC(=O)C2CCCN2S(=O)(=O)c2ccc3nc(-c4ccccc4)[nH]c3c2)c1 (stereo not drawn) | inactive: -29.6% | –
Cc1ccc(Cn2c(=O)n(Cc3ccc(C(=O)NC4CCN(Cc5ccccc5)CC4)cc3)c(=O)c3ccccc32)cc1 | inactive: -11.1% | –
CC(=O)c1ccc(NC(=O)CCn2cccn2)cc1 | inactive: 4.81% | –
CN1C(=O)Cc2cc(S(=O)(=O)NCc3ccccc3Cl)ccc21 | inactive: 25.3% | –
O=C(c1ccc(Br)cc1)N(Cc1ccco1)c1ccccn1 | inactive: 4.34% | –
Cc1ccc(-n2c(C)nc3c(cnn3-c3ccccc3)c2=O)cc1 | inactive: -9.7% | –
CCCc1ccc(OCc2ccc(C(=O)Nc3ccccc3C(=O)OC)o2)cc1 | inactive: 8.63% | –
CCc1ccc(NC(=O)Cn2c(=O)n(-c3cccc(OC)c3)c(=O)c3c(C)c(C(=O)N(C)C)sc32)cc1 | inactive: 3.25% | –
Cc1ccc2oc(C(=O)N3CCC(c4nc5ccccc5s4)CC3)c(C)c2c1 | inactive: -18.4% | –
COc1ccc(-c2nc3n(n2)C(c2ccccc2OC)C(C(=O)Nc2cccnc2)=C(C)N3)cc1 (stereo not drawn) | inactive: -6.15% | –
CCOc1ccc(C(=O)Nc2ccc3oc(-c4ccc(C)cc4C)nc3c2)cc1Br | inactive: 9.65% | –
CCOc1ccc(NC(=O)Cn2c(=O)n(CCCCC(=O)NCCc3ccc(Cl)cc3)c(=O)c3ccccc32)cc1 | inactive: -1.94% | –
CCc1ccccc1NC(=O)CC1NCCNC1=O (stereo not drawn) | inactive: 2.18% | –
O=C(Nc1cccc(Cl)c1)N1CC2CCCN2c2ccccc21 (stereo not drawn) | inactive: -23.3% | –
Cc1ccc(-n2c(=O)c3ccc(C(=O)NCc4ccco4)cc3n(CC(=O)Nc3ccc(C)c(F)c3)c2=O)cc1 | inactive: -11.5% | –
COc1ccc(CNC(=O)c2ccc3c(c2)nc2n3CCCCC2)cc1 | inactive: 47.8% | –
Cc1ccc(NS(=O)(=O)c2ccc3c(c2)N(C)C(=O)CC(=O)N3C)cc1Cl | inactive: -22.1% | –
CCC1CN(C(=O)N2CCC(C(=O)N3CCN(c4ccccc4)CC3)CC2)c2ccccc2O1 (stereo not drawn) | inactive: -22.8% | –
CCOc1ccc(-n2c(SCC(=O)NCc3ccccc3)nc3n[nH]c(C)c3c2=N)cc1 | inactive: -18.4% | –
Nc1nnc(-c2cccc(Cl)c2Cl)c(N)n1 | inactive: -0.774% | –
O=S(=O)(NCC(c1cccs1)S(=O)(=O)c1ccccc1)c1ccccc1 (stereo not drawn) | inactive: -23.6% | –
Cc1cc(C)n(C(C)CC(=O)Nc2ccc(Cl)cc2C)n1 (stereo not drawn) | inactive: -10% | –
COc1cccc(CN2C(=O)C3(SCC(=O)N3c3ccc(C)c(Cl)c3)c3ccccc32)c1 (stereo not drawn) | inactive: -33.3% | –

SMILES | activity change, negative = inhibition | Potency
CC[C@@]1(O)C(=O)OCc2c1cc1n(c2=O)Cc2cc3c(CN(C)C)c(O)ccc3nc2-1 | inactive: -28.1% | –
Cc1cccc(C(=O)n2nc(C)c(S(=O)(=O)N3CCOCC3)c2C)c1 | inactive: -16.6% | –
CCOc1ccc(Sc2cc(C(=O)NCc3ccc(C)cc3)c3ccccc3n2)cc1 | inactive: -13.4% | –
COCCCn1c(=N)c(C(=O)NC2CCCC2)cc2c(=O)n3cccc(C)c3nc21 | inactive: 1.65% | –
CCOc1ccccc1NS(=O)(=O)c1cc2[nH]c(=O)c(=O)[nH]c2cc1C | inactive: 1.02% | –
COc1ccc(Cn2ccc3nc(C)c(C(=O)Nc4cc(OC)c(OC)c(OC)c4)cc3c2=O)cc1 | inactive: -22.1% | –
COC(=O)c1scc(-c2ccc(C)cc2)c1S(=O)(=O)N1CCN(c2ccc(F)cc2)CC1 | inactive: -24.9% | –
Nc1c(C(=O)NCc2cccs2)nnn1CC(=O)Nc1cccc(F)c1 | inactive: -6.22% | –
CCC1CCCCN1C(=O)c1c[nH]c2ccc(S(=O)(=O)Nc3cccc(OC)c3)cc2c1=O (stereo not drawn) | inactive: -2.58% | –
Cc1cc(C)cc(-n2ccn(CC(=O)c3ccc(F)cc3)c(=O)c2=O)c1 | inactive: -17.3% | –
CCOc1ccc(NC(=O)CCc2c(C)nc3cc(-c4ccccc4OC)nn3c2C)cc1 | inactive: -25% | –
COC(=O)c1ccc(CSc2c(C(C)C)cnc3c2c(=O)n(C)c(=O)n3C)cc1 | inactive: -0.8% | –
O=C(O)c1ccc(NS(=O)(=O)c2ccc(Cl)c(C(=O)Nc3ccccc3)c2)cc1 | inactive: -0.694% | –
Cc1ccc(N(C)S(=O)(=O)c2ccc3[nH]c(=O)ccc3c2)cc1 | inactive: -22.2% | –
O=C(c1ccc(CS(=O)(=O)c2ccc(Br)cc2)o1)N1CCN(c2ccc(F)cc2)CC1 | inactive: -25.7% | –
Cc1ccc(NC(=O)c2sc3ncnc(N(C)C4CCCCC4)c3c2C)c(C)c1 | inactive: -0.881% | –
N#C/C(=C\c1ccc(OCc2ccc(Cl)cc2Cl)cc1)c1nc2ccccc2[nH]1 | inactive: -24.3% | –
COc1ccc(NC(=O)c2cnn(-c3ccc(C)c(C)c3)c2C2CCNCC2)cc1OC | inactive: -3.78% | –
Cc1cccc(C2=Nc3ccccc3N=C(c3cc(Cl)ccc3O)C2)c1 | inactive: -21.9% [at 11.5 µM] | –
Cc1oc2c(cc(NS(=O)(=O)c3ccc(C(C)C)cc3)c3ccccc32)c1C(=O)OCc1ccccc1 | inactive: -8.27% | –
COc1ccc(OC)c(CNC(=O)c2cc3c(Cl)nc4ccccc4c3s2)c1 | inactive: -14% | –
Cc1cccc(NC(=O)/C(C#N)=C/c2ccco2)c1 | inactive: 46.9% | –
CCCNC(=O)Cn1nc(-c2ccc(OC)cc2)c2cnc3ccc(F)cc3c21 | inactive: -20.7% | –

— PubChem BioAssay AID1508623 (National Center for Advancing Translational Sciences (NCATS), 2021)
